In the RNAGym collection of RNA variant scans (doi:10.7554/elife.90254):
The source gives no read counts; variants with many changes may rest on few reads.

B1: LINE1-mini (parent)
chain: GGCAGAGCUCAACACAGCGUGGCAAAGUGGCUGUGGCUAGACUGCC

Variants of: B1
Test: self-cleavage, relative activity (ratio to wild type); higher = more cleavage; in vitro, sequencing; the parent is a self-cleaving ribozyme

Question: Which self-cleavage does the source give for GGCAGAGCUCAACACAGCGUGGCAAAGUGGCUGCUGCUAGACUGUC [U34C G35U C45U] here?
Answer: The self-cleavage was 0.03.

Question: For GGCAGAGCUCAACACAGCGUGGCAAAGUGGCUGCUGCAAGACUGCC [U34C G35U U38A], which self-cleavage is on record?
Answer: The self-cleavage was 0.07.

Question: Which self-cleavage does the source give for GGCAGAGCUCAACACAGCGUGGCAAAGUGGCUGCGCCUAGUCUGCC [U34C G36C A41U] here?
Answer: Its self-cleavage is 0.07.

Question: Which self-cleavage does the source give for GGCAGAGCUCAACACAGCGUGGCAAAGUGGCUGCGCUUAGACUGCC [U34C G36C C37U] here?
Answer: The self-cleavage was 0.02.

Question: For GGCAGAGCUCAACACAGCGUGGCAAAGUGGCUGCGUCUAGAGUGCC [U34C G36U C42G], which self-cleavage is on record?
Answer: The self-cleavage was 0.1.

Question: Which self-cleavage does the source give for GGCAGAGCUCAACACAGCGUGGCAAAGUGGCUGCGUCUAGACUGUC [U34C G36U C45U] here?
Answer: The self-cleavage was 0.05.

Question: With GGCAGAGCUCAACACAGCGUGGCAAAGUGGCUGGGGCUUGUCUGCC [U34G A39U A41U] as the variant, how does the self-cleavage read?
Answer: The self-cleavage was 0.04.

Question: For GGCAGAGCUCAACACAGCGUGGCAAAGUGGCUGGGGCUUGACUGCA [U34G A39U C46A], which self-cleavage is on record?
Answer: Its self-cleavage is 0.2.

Question: For GGCAGAGCUCAACACAGCGUGGCAAAGUGGCUGGGGCUAGUUUGCC [U34G A41U C42U], which self-cleavage is on record?
Answer: The self-cleavage was 0.01.

Question: For GGCAGAGCUCAACACAGCGUGGCAAAGUGGCUGGGGGUAGGCGGCC [U34G C37G A41G U43G], which self-cleavage is on record?
Answer: Its self-cleavage is 0.

Question: With GGCAGAGCUCAACACAGCGUGGCAAAGUGGCUGGGGGUAGACUGAC [U34G C37G C45A] as the variant, how does the self-cleavage read?
Answer: Its self-cleavage is 0.03.

Question: Which self-cleavage does the source give for GGCAGAGCUCAACACAGCGUGGCAAAGUGGCUGGGGGUAGACUGCU [U34G C37G C46U] here?
Answer: The self-cleavage was 0.01.

Question: With GGCAGAGCUCAACACAGCGUGGCAAAGUGGCUGGGGGUAGACUUCC [U34G C37G G44U] as the variant, how does the self-cleavage read?
Answer: Its self-cleavage is 0.04.

Question: With GGCAGAGCUCAACACAGCGUGGCAAAGUGGCUGGGGUUAGACUGCA [U34G C37U C46A] as the variant, how does the self-cleavage read?
Answer: Its self-cleavage is 0.02.

Question: For GGCAGAGCUCAACACAGCGUGGCAAAGUGGCUGGUACUAGACUUAC [U34G G35U G36A G44U C45A], which self-cleavage is on record?
Answer: The self-cleavage was 0.04.

Question: For GGCAGAGCUCAACACAGCGUGGCAAAGUGGCUGGGACUAGACUGCU [U34G G36A C46U], which self-cleavage is on record?
Answer: Its self-cleavage is 0.03.

Question: Which self-cleavage does the source give for GGCAGAGCUCAACACAGCGUGGCAAAGUGGCUGGGUCUAGACUGUC [U34G G36U C45U] here?
Answer: Its self-cleavage is 0.05.

Question: Which self-cleavage does the source give for GGCAGAGCUCAACACAGCGUGGCAAAGUGGCUGGGUCGAGAAUUCC [U34G G36U U38G C42A G44U] here?
Answer: Its self-cleavage is 0.01.

Question: Which self-cleavage does the source give for GGCAGAGCUCAACACAGCGUGGCAAAGUGGCUGGGGCCAGACUGCG [U34G U38C C46G] here?
Answer: The self-cleavage was 0.01.

Question: With GGCAGAGCUCAACACAGCGUGGCAAAGUGGCUGGGGCCAUACUGCC [U34G U38C G40U] as the variant, how does the self-cleavage read?
Answer: Its self-cleavage is 0.04.

Question: Which self-cleavage does the source give for GGCAGAGCUCAACACAGCGUGGCAAAGUGGCUGGGGCCAGACGGCC [U34G U38C U43G] here?
Answer: Its self-cleavage is 0.04.

Question: For GGCAGAGCUCAACACAGCGUGGCAAAGUGGCUGGGGCGACACUACC [U34G U38G G40C G44A], which self-cleavage is on record?
Answer: Its self-cleavage is 0.07.

Question: Which self-cleavage does the source give for GGCAGAGCUCAACACAGCGUGGCAAAGUGGCUGUAGACAGUCUGCC [G35A C37A U38C A41U] here?
Answer: The self-cleavage was 0.23.

Question: For GGCAGAGCUCAACACAGCGUGGCAAAGUGGCUGUAGUUAGACUGCG [G35A C37U C46G], which self-cleavage is on record?
Answer: The self-cleavage was 0.01.

Question: With GGCAGAGCUCAACACAGCGUGGCAAAGUGGCUGUAACUAGACUGCU [G35A G36A C46U] as the variant, how does the self-cleavage read?
Answer: Its self-cleavage is 0.12.

Question: Which self-cleavage does the source give for GGCAGAGCUCAACACAGCGUGGCAAAGUGGCUGUACCUAUACUGCC [G35A G36C G40U] here?
Answer: Its self-cleavage is 0.27.

Question: Which self-cleavage does the source give for GGCAGAGCUCAACACAGCGUGGCAAAGUGGCUGUAGCUAGACGGAC [G35A U43G C45A] here?
Answer: Its self-cleavage is 0.12.

Question: For GGCAGAGCUCAACACAGCGUGGCAAAGUGGCUGUCGCUGGCCUGCC [G35C A39G A41C], which self-cleavage is on record?
Answer: Its self-cleavage is 0.04.

Question: Which self-cleavage does the source give for GGCAGAGCUCAACACAGCGUGGCAAAGUGGCUGUCGCUGGAAGGCC [G35C A39G C42A U43G] here?
Answer: The self-cleavage was 0.09.

Question: For GGCAGAGCUCAACACAGCGUGGCAAAGUGGCUGUCGCUUGAUUGCC [G35C A39U C42U], which self-cleavage is on record?
Answer: Its self-cleavage is 0.04.

Question: For GGCAGAGCUCAACACAGCGUGGCAAAGUGGCUGUCGCUAGGCUUCC [G35C A41G G44U], which self-cleavage is on record?
Answer: Its self-cleavage is 0.03.

Question: Which self-cleavage does the source give for GGCAGAGCUCAACACAGCGUGGCAAAGUGGCUGUCGUUAGACUCCC [G35C C37U G44C] here?
Answer: Its self-cleavage is 0.04.

Question: For GGCAGAGCUCAACACAGCGUGGCAAAGUGGCUGUCGCUAGACUGAU [G35C C45A C46U], which self-cleavage is on record?
Answer: Its self-cleavage is 0.04.

Question: With GGCAGAGCUCAACACAGCGUGGCAAAGUGGCUGUCCCUAGAUUCCC [G35C G36C C42U G44C] as the variant, how does the self-cleavage read?
Answer: The self-cleavage was 0.02.

Question: Which self-cleavage does the source give for GGCAGAGCUCAACACAGCGUGGCAAAGUGGCUGUCUCUAGUCUGCC [G35C G36U A41U] here?
Answer: The self-cleavage was 0.26.

Question: With GGCAGAGCUCAACACAGCGUGGCAAAGUGGCUGUCUCCAGACUGCC [G35C G36U U38C] as the variant, how does the self-cleavage read?
Answer: Its self-cleavage is 0.02.

Question: Which self-cleavage does the source give for GGCAGAGCUCAACACAGCGUGGCAAAGUGGCUGUCGCUAAACUGCG [G35C G40A C46G] here?
Answer: Its self-cleavage is 0.12.

Question: With GGCAGAGCUCAACACAGCGUGGCAAAGUGGCUGUCGCUAGACUCGC [G35C G44C C45G] as the variant, how does the self-cleavage read?
Answer: The self-cleavage was 0.01.

Question: With GGCAGAGCUCAACACAGCGUGGCAAAGUGGCUGUCGCAAGACUGUC [G35C U38A C45U] as the variant, how does the self-cleavage read?
Answer: The self-cleavage was 0.08.

Question: With GGCAGAGCUCAACACAGCGUGGCAAAGUGGCUGUCGCUAGACGGAC [G35C U43G C45A] as the variant, how does the self-cleavage read?
Answer: The self-cleavage was 0.05.

Question: With GGCAGAGCUCAACACAGCGUGGCAAAGUGGCUGUUGCUGGACUGCU [G35U A39G C46U] as the variant, how does the self-cleavage read?
Answer: The self-cleavage was 0.02.

Question: Which self-cleavage does the source give for GGCAGAGCUCAACACAGCGUGGCAAAGUGGCUGUUGAUAGGCUGCC [G35U C37A A41G] here?
Answer: The self-cleavage was 0.05.

Question: For GGCAGAGCUCAACACAGCGUGGCAAAGUGGCUGUUGGAAGACUGCC [G35U C37G U38A], which self-cleavage is on record?
Answer: Its self-cleavage is 0.33.

Question: With GGCAGAGCUCAACACAGCGUGGCAAAGUGGCUGUUGUUAUAAUGUC [G35U C37U G40U C42A C45U] as the variant, how does the self-cleavage read?
Answer: Its self-cleavage is 0.03.

Question: For GGCAGAGCUCAACACAGCGUGGCAAAGUGGCUGUUGCUAGAUUUCU [G35U C42U G44U C46U], which self-cleavage is on record?
Answer: Its self-cleavage is 0.

Question: With GGCAGAGCUCAACACAGCGUGGCAAAGUGGCUGUUGCUAGACUGGG [G35U C45G C46G] as the variant, how does the self-cleavage read?
Answer: The self-cleavage was 0.03.

Question: With GGCAGAGCUCAACACAGCGUGGCAAAGUGGCUGUUCCUAGAGUGCC [G35U G36C C42G] as the variant, how does the self-cleavage read?
Answer: The self-cleavage was 0.05.

Question: Which self-cleavage does the source give for GGCAGAGCUCAACACAGCGUGGCAAAGUGGCUGUUCCUAGACUGUA [G35U G36C C45U C46A] here?
Answer: The self-cleavage was 0.03.

Question: With GGCAGAGCUCAACACAGCGUGGCAAAGUGGCUGUUCCUAGACGGCC [G35U G36C U43G] as the variant, how does the self-cleavage read?
Answer: Its self-cleavage is 0.37.

Question: Which self-cleavage does the source give for GGCAGAGCUCAACACAGCGUGGCAAAGUGGCUGUUUCUUGACUGCC [G35U G36U A39U] here?
Answer: Its self-cleavage is 0.11.

Question: For GGCAGAGCUCAACACAGCGUGGCAAAGUGGCUGUUUCUAGACUGCU [G35U G36U C46U], which self-cleavage is on record?
Answer: The self-cleavage was 0.04.

Question: Which self-cleavage does the source give for GGCAGAGCUCAACACAGCGUGGCAAAGUGGCUGUUGCUAUACGGCC [G35U G40U U43G] here?
Answer: The self-cleavage was 0.

Question: Which self-cleavage does the source give for GGCAGAGCUCAACACAGCGUGGCAAAGUGGCUGUUGCUAGACUUUC [G35U G44U C45U] here?
Answer: The self-cleavage was 0.03.

Question: With GGCAGAGCUCAACACAGCGUGGCAAAGUGGCUGUUGCCGAGACUGC [G35U U38C A39G G40A A41G C42A U43C G44U C45G] as the variant, how does the self-cleavage read?
Answer: Its self-cleavage is 0.05.

Question: Which self-cleavage does the source give for GGCAGAGCUCAACACAGCGUGGCAAAGUGGCUGUUGCCAGACUGCU [G35U U38C C46U] here?
Answer: Its self-cleavage is 0.2.

Question: For GGCAGAGCUCAACACAGCGUGGCAAAGUGGCUGUUGCGUGACUGUC [G35U U38G A39U C45U], which self-cleavage is on record?
Answer: Its self-cleavage is 0.07.
